Data on 40 sequences can be found in publication PMC6602471.

The other results are listed elsewhere or left out. At the low end of the ranking the order means little.

This assay deals with T1, ELK1 (UniProt P19419).
T1 sequence: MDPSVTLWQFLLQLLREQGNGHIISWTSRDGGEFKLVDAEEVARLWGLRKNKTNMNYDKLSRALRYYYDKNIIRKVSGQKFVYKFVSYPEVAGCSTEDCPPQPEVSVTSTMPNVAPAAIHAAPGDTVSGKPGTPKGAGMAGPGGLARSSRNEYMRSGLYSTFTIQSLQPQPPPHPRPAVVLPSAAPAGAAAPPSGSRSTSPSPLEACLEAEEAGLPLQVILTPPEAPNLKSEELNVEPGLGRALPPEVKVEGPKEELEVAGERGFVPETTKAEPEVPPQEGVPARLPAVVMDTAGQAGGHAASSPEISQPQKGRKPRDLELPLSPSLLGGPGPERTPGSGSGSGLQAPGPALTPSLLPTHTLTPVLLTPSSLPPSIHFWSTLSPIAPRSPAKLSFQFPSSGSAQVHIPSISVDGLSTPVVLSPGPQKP
The assay can be described thus: custom PBM. To be noted: custom protein-binding microarray; buffer, salt, pH and temperature not stated; high values mean tight binding; double strand, one strand shown.
In the case of “CGGAAGTGTCGGAAACGTCGGATATCCGGTTCTTCTGTCTTGATTCGCTTGACGCTGCTG”, the binding signal (log fluorescence intensity) was 13.5.

Turning to “TAAAGGGAAGACGTTTGTGGTAGTTCCGGGTATTAAGTCTTGATTCGCTTGACGCTGCTG”, the binding signal (log fluorescence intensity) turned out to be 11.

For the sequence “CACAAATTTTACAGTAATGTAGCACGCGTAACTCCTGTCTTGATTCGCTTGACGCTGCTG”, the binding signal (log fluorescence intensity) stood at 8.89.

“CAGCATAGGACTTCTTCCCTGAAGCAATTGATACCCGTCTTGATTCGCTTGACGCTGCTG”: the binding signal (log fluorescence intensity) was determined as 8.91.

Regarding “CAGCATAGGACTTCTTCCCTGAACCAATTGATAACCGTCTTGATTCGCTTGACGCTGCTG”, the binding signal (log fluorescence intensity) came out at 8.89.

“GCTGCTGCGGTGCATACCCCAACGGATGTGACCCCGGTCTTGATTCGCTTGACGCTGCTG”: the binding signal (log fluorescence intensity) is 9.21.

In the case of “GAGTATAGGATCCCATCCAACACACGTGTTAAAATGGTCTTGATTCGCTTGACGCTGCTG”, the binding signal (log fluorescence intensity) is 9.01.

With “CTGGGACTTGACCCAACTCTGCCACGTGCGTCGTTTGTCTTGATTCGCTTGACGCTGCTG”, the binding signal (log fluorescence intensity) stood at 8.78.

Regarding “GGAAAAAGGCCCGGGGTAACACCGGAAGTGGGCTTAGTCTTGATTCGCTTGACGCTGCTG”, the binding signal (log fluorescence intensity) came to 11.8.

Consider “TGTCGGGTAAGGGAATGTAGATCACGTGAATGAAGAGTCTTGATTCGCTTGACGCTGCTG”, for which the binding signal (log fluorescence intensity) came to 9.1.

On to “TGTCGGGTAAGGGAATGTAGATCACGTTAATGAAAAGTCTTGATTCGCTTGACGCTGCTG”, for which the binding signal (log fluorescence intensity) amounted to 8.78.

In the case of “CAGCATAGGACTTCTTCCCTGAAACAATTGATAACCGTCTTGATTCGCTTGACGCTGCTG”, the binding signal (log fluorescence intensity) came out at 8.97.

For the sequence “CGGAAGTGTCGTAAACGTAGGATATCCGGTTCTTCTGTCTTGATTCGCTTGACGCTGCTG”, the binding signal (log fluorescence intensity) is 11.8.

As for “TTGTATAGGATCCCATCCAACACACGTGTTAAAATGGTCTTGATTCGCTTGACGCTGCTG”, the binding signal (log fluorescence intensity) was 8.83.

“CGGAAGTGTCGTAAACGTCGGCTATCCGGTTCTTCTGTCTTGATTCGCTTGACGCTGCTG”: the binding signal (log fluorescence intensity) came out at 9.69.

For the sequence “CACAATCTTTACAGTAATGTAGCACGCGTAACTCCTGTCTTGATTCGCTTGACGCTGCTG”, the binding signal (log fluorescence intensity) was found to be 8.76.

Turning to “GCTGCTGCGGGGCATACCCCACCGGATGTGACCCCGGTCTTGATTCGCTTGACGCTGCTG”, the binding signal (log fluorescence intensity) is 10.3.

As for “CAGCATAGGACTTCTTCCCTGAAGCAATTGAAAACCGTCTTGATTCGCTTGACGCTGCTG”, the binding signal (log fluorescence intensity) is 8.98.

For “CTGGCACTTGACCCAACTCTGCCACGTGGGTCGTTTGTCTTGATTCGCTTGACGCTGCTG”, the binding signal (log fluorescence intensity) turned out to be 8.93.

Consider “CACAATTTTTACAGTAATCTAGCACGCGTAACTCCTGTCTTGATTCGCTTGACGCTGCTG”, for which the binding signal (log fluorescence intensity) was 8.92.

As for “TCCGGCTACCAGCTTCACCCACTTCAGGCCTTGTAGGTCTTGATTCGCTTGACGCTGCTG”, the binding signal (log fluorescence intensity) amounted to 8.87.

Consider “CTGGGACTTGACCCAACTCTGCCACATGGGTCGTTTGTCTTGATTCGCTTGACGCTGCTG”, for which the binding signal (log fluorescence intensity) stood at 8.95.

Regarding “TCCGGTTACCAGCTCCACCCACTTCAGGCCTTGTAGGTCTTGATTCGCTTGACGCTGCTG”, the binding signal (log fluorescence intensity) worked out at 8.91.

As for “TACTGACTTATATATGCGAATGCACGTGAATAGACCGTCTTGATTCGCTTGACGCTGCTG”, the binding signal (log fluorescence intensity) amounted to 8.85.

“TAATGGGAAGACGGTTGTGGTAGTTCCGGGTATTAAGTCTTGATTCGCTTGACGCTGCTG”: the binding signal (log fluorescence intensity) stood at 11.2.

“CAGCATAGGACTTCTTCCCTGAAGCAGTTGATAACCGTCTTGATTCGCTTGACGCTGCTG”: the binding signal (log fluorescence intensity) was found to be 8.98.

For the sequence “TACTGACTTATATATGCGAATGCACATGAATGGACCGTCTTGATTCGCTTGACGCTGCTG”, the binding signal (log fluorescence intensity) worked out at 8.96.

For the sequence “TAAAGGGAAGACGGTTGTGGTAGTTCCGCGTATTAAGTCTTGATTCGCTTGACGCTGCTG”, the binding signal (log fluorescence intensity) turned out to be 9.44.

On to “CACAATTTTTACAGTAATGTAGCACGCGTACCTCCTGTCTTGATTCGCTTGACGCTGCTG”, for which the binding signal (log fluorescence intensity) turned out to be 8.78.

Turning to “GGAAAAAGGCCCAGGGTAACACCGGAGGTGGGCTTAGTCTTGATTCGCTTGACGCTGCTG”, the binding signal (log fluorescence intensity) was determined as 9.1.

“GATTAATTTCTGTCCTTATTCGCACGTGCCATAACAGTCTTGATTCGCTTGACGCTGCTG”: the binding signal (log fluorescence intensity) turned out to be 8.82.

As to “CACAATTTTTACAGTAATGTAGCACGCGCAACTCCTGTCTTGATTCGCTTGACGCTGCTG”, the binding signal (log fluorescence intensity) is 8.83.

Consider “GCAAAAAGGCCCAGGGTAACACCGGAAGTGGGCTTAGTCTTGATTCGCTTGACGCTGCTG”, for which the binding signal (log fluorescence intensity) was determined as 11.

With “TCCGGCTACCAGCTCCACCCACTTCAGGCGTTGTAGGTCTTGATTCGCTTGACGCTGCTG”, the binding signal (log fluorescence intensity) amounted to 8.92.

In the case of “GATTAATTTCTGCCCTTATTCGCAAGTGCCATAACAGTCTTGATTCGCTTGACGCTGCTG”, the binding signal (log fluorescence intensity) was 8.87.

For the sequence “AATTAATTTCTGCCCTTATTCGCACGTGCCATAACAGTCTTGATTCGCTTGACGCTGCTG”, the binding signal (log fluorescence intensity) worked out at 8.87.

As for “GTGTATAGGATCCCATCCAACACACGTGTTAAAATCGTCTTGATTCGCTTGACGCTGCTG”, the binding signal (log fluorescence intensity) is 8.88.

As to “CAGGATAGGACTTCTTCCCTGAAGCAATTGATAACCGTCTTGATTCGCTTGACGCTGCTG”, the binding signal (log fluorescence intensity) turned out to be 8.78.

With “GGGAAGTGTCGTAAACGTCGGATATCCGGTTCTTCTGTCTTGATTCGCTTGACGCTGCTG”, the binding signal (log fluorescence intensity) amounted to 12.6.

In the case of “TAAAGGGAAGACGGTTGTGGTCGTTCCGGGTATTAAGTCTTGATTCGCTTGACGCTGCTG”, the binding signal (log fluorescence intensity) amounted to 9.83.
